Source: paper PMC12136788
Some of the results follow.

T1: UNK ZnF1-3 (human, UniProt Q9C0B0 31-174)
T1 sequence: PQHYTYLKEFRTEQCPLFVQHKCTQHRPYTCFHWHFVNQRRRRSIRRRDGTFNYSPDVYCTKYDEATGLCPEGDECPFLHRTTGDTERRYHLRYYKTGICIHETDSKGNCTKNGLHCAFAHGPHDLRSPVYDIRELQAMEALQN

B1: chr3:33945423:33945424:+_ENSMUSG00000027680_ENSMUST00000167354|mus_mus|motif|central (ssRNA)
RNA: GGGAGUUCUACAGUCCGACGAUCGGUAUUUUUUUUGACAGUUUUAUUUUGAUUGACAGGCCGAAGUCGUUCAAAUGUGACGGUUUCAUUGUAAGUGGCAUCACAAGCAGCAUAUUCAAUGACAUAAAACUCGCCUUUCAUCAUCAACAGAGGAUUGAGCAUCA
B2: chr6:42629286:42629287:-_ENSMUSG00000036667_ENSMUST00000045054|mus_hu|motif|central (ssRNA)
RNA: GGGAGUUCUACAGUCCGACGAUCGAAUAAUACCUUAUGGCCAGUCACAACCACCCGGCCCCGGCCAUAGCGGGCAGCCGCGGUAACACAGCCAUGGUAGGAAUCUAACCCUAGAGGAAAGGCUAAAGCCCCAUGCACUAGCAGCAACAGAGGAUUGAGCAUCA
B3: 148344039_148344431_7884_CDS_ENSMUSG00000025261_ENSMUST00000112622|mouse|control|control (ssRNA)
RNA: GGGAGUUCUACAGUCCGACGAUCUAGAGCUGUUGGGAUGCUGGACAGGGUUCCUGCUUGGCUAGUGGCUGUACUCUGGUCAUGAAAAAAGUCAUCCAGCAGCUCGUCAUCAGACCUGGCGAUGAUAUGGACGUCAUCAUUGCCCAACAGAGGAUUGAGCAUCA
B4: 36995896_37000584_3822_CDS_ENSG00000164190_ENST00000448238|human|control|control (ssRNA)
RNA: GGGAGUUCUACAGUCCGACGAUCUCUUCCUUCAUGAGAGUGGCCACUUCUCCUAUGAUCCCCAGAGCUUCUUCUGUCACGCUCUUCAUAUUCCCAAGCUUUAUCAUCAUCUUUUUUAUGUCGUUUCCUAGAGGAUUCAAAAGCCAACAGAGGAUUGAGCAUCA
B5: chr4:99997923:99997924:-_ENSG00000197894_ENST00000296412|hu_hu|FALSE|FALSE (ssRNA)
RNA: GGGAGUUCUACAGUCCGACGAUCAGCACCAUAACCGGUUGAAAUGCCACAACCUAGAAGGCAGACUUUAUCCAAAGGUGCUAAAGGAUCUAUUUUAGCAACAGAGAUAUCAGCCACAACUGUGUAUUCAGAAAAUGUGCUGGUCAACAGAGGAUUGAGCAUCA
B6: chr22:32879901:32879902:+_ENSG00000100225_ENST00000397426|hu_mus|hu_hu_hu_mus_False|38_108 (ssRNA)
RNA: GGGAGUUCUACAGUCCGACGAUCCUCUGCCAUAUGCAUGGCAUCCUGAAUUGACUCAGCUUCAACAUUUUGACUAGGCCCUUCCAUACUGUCAUCAUUCCAAACACCAAAUGGGGUGGCCUGUCCUUGGGAUGAAUCAGUCCCCAACAGAGGAUUGAGCAUCA
B7: chr3:176740097:176740098:-_ENSG00000177565_ENST00000430069|hu_mus|hu_hu_hu_mus_True|1_18 (ssRNA)
RNA: GGGAGUUCUACAGUCCGACGAUCUGUUUUGUAUACCACAAAAGGAGGCACUUUCAGUAUCUGCAAAAGGUGUUUAGUCCUAAAACAUACUCACCUAGAGGAUAACUCAGGAAAACAUCAAUACAAUCUCUAAGACCUUAGGAACAACAGAGGAUUGAGCAUCA
B8: chr4:115894766:115894767:+_ENSMUSG00000028698_ENSMUST00000030464|mus_hu|mus_mus_mus_hu_True|18_68 (ssRNA)
RNA: GGGAGUUCUACAGUCCGACGAUCUUCCACACGGAAAUGUACUUCGGGUUUUCCAACGGCCAGUACCGUCCAGCCAAAACUACCCGAACAGGGUCCUCCCCCUCUCUCCUACAGAACUAAAGCACCCGCCCCCGAACUUUCAAGCAACAGAGGAUUGAGCAUCA
B9: chr4:103720638:103720639:-_ENSG00000109332_ENST00000394803|hu_mus|FALSE|FALSE (ssRNA)
RNA: GGGAGUUCUACAGUCCGACGAUCGAUCCGUGCAAUCUCUGGCACUAGGGGGUCGUCUGGGUUUGGAUCACAUAGCAGUGAACAAAUGGAUAAAAGAACUUUAGAAAUAGUUAAAGCAGGAGACCACUGUGAUCUUAGAAUAUCCAACAGAGGAUUGAGCAUCA
B10: chr19:26852702:26852703:+_ENSMUSG00000024921_ENSMUST00000025862|mus_hu|FALSE|FALSE (ssRNA)
RNA: GGGAGUUCUACAGUCCGACGAUCAUUACUGGAAUUUUAUUUGCCUCAGGCUUAUGACUUGCAACCAAAGACAUUGUGCAAAGAAAGCAAAGAUUAAGUACACUUUAGGGAGAAGGAGACGAUACACAUUGGUAACAUAGGAGACAACAGAGGAUUGAGCAUCA
B11: chr7:108143013:108143014:-_ENSG00000135241_ENST00000257694|hu_hu|FALSE|FALSE (ssRNA)
RNA: GGGAGUUCUACAGUCCGACGAUCGAGAAUUCGGAUUCCUCUCCCUUUCACUGGAUCCACAUAGCCAAUUAGGGCCAAAAUUUCUCUAACUGCAGCCUGAAGAGUUUCAUCCUUAAUUUGUCUCAGUCGUAAUAAAUAUGGAAUCAACAGAGGAUUGAGCAUCA
B12: chr9:59236566:59236567:-_ENSMUSG00000025234_ENSMUST00000171975|mus_mus|FALSE|FALSE (ssRNA)
RNA: GGGAGUUCUACAGUCCGACGAUCGUGCACAGUUUUCAUUUAUGAAGGAGCCGUUUUCCCACUGUUGUUUACCUUAAAAAAAAAAAAAACAAAACAAAAAACCCUCAACUCCCAAGUUGAUAGGUGCAUACCUGUAAUCCCAGUCAACAGAGGAUUGAGCAUCA
B13: chr11:60966614:60966615:-_ENSMUSG00000042506_ENSMUST00000041683|mus_hu|motif|central (ssRNA)
RNA: GGGAGUUCUACAGUCCGACGAUCACUGAGCAGUGAGUAGCAGCUGCCACUGUCACUACCCCCUCCCCAGCCCAGCCAGCGGAGGAGCUGGGUCUGGUCCCCACCAGCUUCUCCAUGGCCUGUGAGCUAAGAAUAGGUUUCACGCAACAGAGGAUUGAGCAUCA
B14: chr6:42636609:42636610:-_ENSMUSG00000036667_ENSMUST00000045054|mus_mus|motif|central (ssRNA)
RNA: GGGAGUUCUACAGUCCGACGAUCGGCAUCAAUGCAGUAAACCCCCAGGGAGUCAUUGACUUCUGGCUCAAUCUUUGACUCGGUUCCACAGCUCUCGAGAAUUUUCACCAAUGGUGCUAAAGAUGAGUGCACACCAAUGGCUGACAACAGAGGAUUGAGCAUCA
B15: chr11:80292881:80292882:+_ENSMUSG00000048895_ENSMUST00000053413|mus_mus|motif|central (ssRNA)
RNA: GGGAGUUCUACAGUCCGACGAUCCAGCUUAAAAUUAACAAUUGGGGGGGGGGGGCAGGGAUGGGAAACAGCAACACCCCGGUUGACUGAUCUCACCUCCCCCCAACGAUACAGAACAAAGAUCACGGGCACCAGCGAGAGGCCCAACAGAGGAUUGAGCAUCA
B16: chr2:153237265:153237266:-_ENSMUSG00000061411_ENSMUST00000109784|mus_mus|mus_mus_mus_hu_False|8_8 (ssRNA)
RNA: GGGAGUUCUACAGUCCGACGAUCAAAAAAAAAAAAAAAAAAGUGUCCUUGUGCCCAAAGUCUCAGGUGCUUGGAGUGUGGCUAGAAACAGCUCUUUUGGAUCCCACCUCUUUCAAAAACAAAAUGUCCAACUGGUGGAGGCAGCAACAGAGGAUUGAGCAUCA
B17: 31982884_31984648_436_CDS_ENSG00000101391_ENST00000346416|human|control|control (ssRNA)
RNA: GGGAGUUCUACAGUCCGACGAUCAUUCACAUUCAUCUGGCAGCCAUAGGUCUCGAGGUAGACUUUUCUCUGCCUUCCAAGAAGUUCAUCCAUCAUGAGAUAGGGAGGUGGGUCUUCCACUUCUGAAGACAGCUUCUCCUGAGGCAACAGAGGAUUGAGCAUCA
B18: 3712656_3714518_4735_CDS_ENSG00000110713_ENST00000324932|human|control|control (ssRNA)
RNA: GGGAGUUCUACAGUCCGACGAUCGCCAGAACCCUCCAGAUACGAAGGAAGUGGGGAGCAGGCAUAUCUGUCACUGUCAGAGGUAUUCUGAAAUGCUUCUUCAUACAUGCUGAGCGCCCUAGAAAUGGAGGCUGUUGGUGGAAGCAACAGAGGAUUGAGCAUCA
B19: 134322000_134322562_941_3pUTR_ENSG00000130723_ENST00000357304|human|control|control (ssRNA)
RNA: GGGAGUUCUACAGUCCGACGAUCAAGGAACUCGAGGUUCAAGGCGGAGCUGAGGAAGGGGAAAAGAGCCUCGUUCCACUGUACCCUGGUUUUCUGAUGACUUCGGCGAACACAUAAAAGCAGGAAGCAUGUCAUGGUAUGUAGCAACAGAGGAUUGAGCAUCA
B20: 216279640_216284043_2066_CDS_ENSG00000115414_ENST00000323926|human|control|control (ssRNA)
RNA: GGGAGUUCUACAGUCCGACGAUCCGGAGUCUCAGUGAUAAAUACUUCGACAGGACCACUUGAGCUUGGAUAGGUCUGUAAAGGUUGGCAAUGCCACUCCCCAAUGCCACGGCCAUAGCAGUAGCACUGGUAUCUGACACCAUGCAACAGAGGAUUGAGCAUCA
B21: chr8:13935169:13935170:+_ENSMUSG00000038365_ENSMUST00000043520|mus_mus|FALSE|FALSE (ssRNA)
RNA: GGGAGUUCUACAGUCCGACGAUCCGGGUAAUACUUCUGAAGCGUGAAAUACAUCAGCUUCCACUCGAUAUGACCUUUUUCUGAAAGGAUCAAAUGUCUACAAAACUGCUGCUCAGCAAAGUGGUACUGACACAGUCGCUUCCACAACAGAGGAUUGAGCAUCA
B22: 64573157_64573738_1184_CDS_ENSG00000133895_ENST00000312049|human|control|control (ssRNA)
RNA: GGGAGUUCUACAGUCCGACGAUCCUCCUUCAGCAGGUUGGGGAUGACAUCAUUGGCUACUUCAAAGAACUCCUUGUAGAUCUCCUCGUCUUCCCGGCAGUAGUUGUAGUCCUGGAUGACAGUGGCCGUGUCCGCCCAGGCCUGCAACAGAGGAUUGAGCAUCA

The binders below were run against T1, UNK ZnF1-3 (assay: nsRBNS (natural sequence RNA bind-n-seq); RBNS binding buffer (assumed for nsRBNS): 25 mM Tris pH 7.5, 150 mM KCl, 3 mM MgCl2, 0.01% Triton X-100, 500 ug/ml BSA, 20 U/ml SUPERase-In, 4 C; UNK is unkempt and MSI1 is Musashi-1; names of the RNAs are library labels; protein concentration not given here; high values mean tight binding).

Binder | binding signal [enrichment R]
B1 | 0.971
B2 | 1.43
B3 | 0.712
B4 | 0.763
B5 | 3.05
B6 | 0.754
B7 | 0.78
B8 | 1.19
B9 | 3.2
B10 | 1.34
B11 | 0.935
B12 | 2.36
B13 | 0.908
B14 | 1.07
B15 | 1.13
B16 | 3
B17 | 0.659
B18 | 1.37
B19 | 1.65
B20 | 0.709
B21 | 0.589
B22 | 1.04
